Patent US20240043542A1 (published 2024)

T1: cynomolgus monkey B7-H4 on the cell surface (cynomolgus monkey, UniProt Q7Z7D3 25-282 (human entry))
T1 construct: full-length, on transfected HEK293T cells
T1 chain: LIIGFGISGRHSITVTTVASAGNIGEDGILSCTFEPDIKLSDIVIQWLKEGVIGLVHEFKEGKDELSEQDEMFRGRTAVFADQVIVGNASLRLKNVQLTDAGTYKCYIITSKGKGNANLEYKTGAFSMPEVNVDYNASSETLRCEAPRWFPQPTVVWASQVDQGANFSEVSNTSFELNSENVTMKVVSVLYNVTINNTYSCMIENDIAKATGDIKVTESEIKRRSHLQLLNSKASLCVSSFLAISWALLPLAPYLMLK

T2: rat B7-H4 on the cell surface (rat, UniProt Q501W4 25-257)
T2 construct: full-length, on transfected HEK293T cells
T2 sequence: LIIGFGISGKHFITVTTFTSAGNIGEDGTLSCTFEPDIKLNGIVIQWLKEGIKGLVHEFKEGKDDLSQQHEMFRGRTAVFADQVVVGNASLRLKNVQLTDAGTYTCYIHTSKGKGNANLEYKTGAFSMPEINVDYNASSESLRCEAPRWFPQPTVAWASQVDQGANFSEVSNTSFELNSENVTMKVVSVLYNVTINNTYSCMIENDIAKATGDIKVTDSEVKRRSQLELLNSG

T3: mouse B7-H4 on the cell surface (mouse, UniProt Q7TSP5 25-257)
T3 construct: full-length, on transfected HEK293T cells
T3 sequence: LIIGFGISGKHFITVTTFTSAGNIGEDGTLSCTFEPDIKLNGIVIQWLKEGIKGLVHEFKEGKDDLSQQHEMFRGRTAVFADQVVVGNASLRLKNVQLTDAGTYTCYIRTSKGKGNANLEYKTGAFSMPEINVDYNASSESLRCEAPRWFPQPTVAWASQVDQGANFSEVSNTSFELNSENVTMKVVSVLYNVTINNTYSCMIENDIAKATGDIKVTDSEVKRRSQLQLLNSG

T4: human B7-H4 on the cell surface (human, UniProt Q7Z7D3 25-282)
T4 construct: full-length human B7-H4 on transfected HEK293T cells or endogenous on SK-BR-3 cells; also called SK-BR-3 (endogenous human B7-H4)
T4 sequence: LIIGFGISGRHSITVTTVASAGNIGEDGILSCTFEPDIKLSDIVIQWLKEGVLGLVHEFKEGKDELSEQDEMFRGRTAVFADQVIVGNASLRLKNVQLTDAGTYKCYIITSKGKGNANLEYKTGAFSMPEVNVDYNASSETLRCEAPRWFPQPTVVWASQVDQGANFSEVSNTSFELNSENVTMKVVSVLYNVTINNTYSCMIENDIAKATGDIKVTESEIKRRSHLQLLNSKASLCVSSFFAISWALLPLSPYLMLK


Legend:
B7-H4 IgV-huIgG1 = target: T5, B7-H4 IgV-huIgG1 (human); test: SPR, protocol of Example 4
T5 construct: also called N-terminal domain of human B7-H4

[1] = target: T1, cynomolgus monkey B7-H4 on the cell …; test: flow cytometry, transfected 293 cells
[2] = target: T2, rat B7-H4 on the cell surface; test: flow cytometry, transfected 293 cells
[3] = target: T3, mouse B7-H4 on the cell surface; test: flow cytometry, transfected 293 cells
[4] = target: T4, human B7-H4 on the cell surface; test: flow cytometry, SK-BR-3 cells
[5] = target: T4, human B7-H4 on the cell surface; test: cell-based or functional assay
[6] = target: T4, human B7-H4 on the cell surface; test: cell-based or functional assay; remark: listed apart in the source

Binder | Kd (B7-H4 IgV-huIgG1) [nM] | koff (B7-H4 IgV-huIgG1) [s⁻¹] | kon (B7-H4 IgV-huIgG1) [M⁻¹ s⁻¹] | EC50 [1] [nM] | EC50 [2] [nM] | EC50 [3] [nM] | EC50 [4] [nM] | ADCC Assay EC50 (SK-BR-3 target cells) [5] [nM] | aAPC Assay EC50 (IFNγ production) [6] [nM]
B7-H4 antibody 20502, afucosylated (antibody, human IgG1, kappa, afucosylated Fc glycan (made in CHO-y cells), human IgG1/kappa; also called Ab-A) heavy: QLQLQESGPGLVKPSETLSLTCTVSGGSIKSGSYYWGWIRQPPGKGLEWIGNIYYSGSTYYNPSLRSRVTISVDTSKNQFSLKLSSVTAADTAVYYCAREGSYPNQFDPWGQGTLVTVSS[human IgG1 constant region omitted here] light: EIVMTQSPATLSVSPGERATLSCRASQSVSSNLAWYQQKPGQAPRLLIYGASTRATGIPARFSGSGSGTEFTLTISSLQSEDFAVYYCQQYHSFPFTFGGGTKVEIKRTVAAPSVFIFPPSDEQLKSGTASVVCLLNNFYPREAKVQWKVDNALQSGNSQESVTEQDSKDSTYSLSSTLTLSKADYEKHKVYACEVTHQGLSSPVTKSFNRGEC | 2.74 | 0.00115 | 419000 | 2.92 | 2.45 | 1.66 | 0.483 | 0.0007 | 0.89
B7-H4 antibody 20502, fucosylated (antibody, human IgG1, kappa, normally fucosylated Fc glycan (made in CHO-x cells), human IgG1/kappa; also called Ab-F) heavy: QLQLQESGPGLVKPSETLSLTCTVSGGSIKSGSYYWGWIRQPPGKGLEWIGNIYYSGSTYYNPSLRSRVTISVDTSKNQFSLKLSSVTAADTAVYYCAREGSYPNQFDPWGQGTLVTVSS[human IgG1 constant region omitted here] light: EIVMTQSPATLSVSPGERATLSCRASQSVSSNLAWYQQKPGQAPRLLIYGASTRATGIPARFSGSGSGTEFTLTISSLQSEDFAVYYCQQYHSFPFTFGGGTKVEIKRTVAAPSVFIFPPSDEQLKSGTASVVCLLNNFYPREAKVQWKVDNALQSGNSQESVTEQDSKDSTYSLSSTLTLSKADYEKHKVYACEVTHQGLSSPVTKSFNRGEC |  | 0.0011 | 428000 | 3.29 | 2.49 | 4.37 | 0.571 | 0.037 | 0.74
